Paper PMC4336329 (PLoS ONE, 2015)
About 14,000 (4.5%) of roughly 310,000 compounds showed an effect of 50% or more. Effects have a minus sign here. This is one part of the list.

These compounds were tested against human ether-à-go-go-related gene (hERG) potassium channel (human, UniProt Q12809) (assay: primary screen, population patch clamp on CHO cells stably expressing hERG).
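Also: peak tail current of the secondary pulse compared with the same well before compound.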

Sequence of human ether-à-go-go-related gene (hERG) potassium channel (Q12809 whole entry, looked up): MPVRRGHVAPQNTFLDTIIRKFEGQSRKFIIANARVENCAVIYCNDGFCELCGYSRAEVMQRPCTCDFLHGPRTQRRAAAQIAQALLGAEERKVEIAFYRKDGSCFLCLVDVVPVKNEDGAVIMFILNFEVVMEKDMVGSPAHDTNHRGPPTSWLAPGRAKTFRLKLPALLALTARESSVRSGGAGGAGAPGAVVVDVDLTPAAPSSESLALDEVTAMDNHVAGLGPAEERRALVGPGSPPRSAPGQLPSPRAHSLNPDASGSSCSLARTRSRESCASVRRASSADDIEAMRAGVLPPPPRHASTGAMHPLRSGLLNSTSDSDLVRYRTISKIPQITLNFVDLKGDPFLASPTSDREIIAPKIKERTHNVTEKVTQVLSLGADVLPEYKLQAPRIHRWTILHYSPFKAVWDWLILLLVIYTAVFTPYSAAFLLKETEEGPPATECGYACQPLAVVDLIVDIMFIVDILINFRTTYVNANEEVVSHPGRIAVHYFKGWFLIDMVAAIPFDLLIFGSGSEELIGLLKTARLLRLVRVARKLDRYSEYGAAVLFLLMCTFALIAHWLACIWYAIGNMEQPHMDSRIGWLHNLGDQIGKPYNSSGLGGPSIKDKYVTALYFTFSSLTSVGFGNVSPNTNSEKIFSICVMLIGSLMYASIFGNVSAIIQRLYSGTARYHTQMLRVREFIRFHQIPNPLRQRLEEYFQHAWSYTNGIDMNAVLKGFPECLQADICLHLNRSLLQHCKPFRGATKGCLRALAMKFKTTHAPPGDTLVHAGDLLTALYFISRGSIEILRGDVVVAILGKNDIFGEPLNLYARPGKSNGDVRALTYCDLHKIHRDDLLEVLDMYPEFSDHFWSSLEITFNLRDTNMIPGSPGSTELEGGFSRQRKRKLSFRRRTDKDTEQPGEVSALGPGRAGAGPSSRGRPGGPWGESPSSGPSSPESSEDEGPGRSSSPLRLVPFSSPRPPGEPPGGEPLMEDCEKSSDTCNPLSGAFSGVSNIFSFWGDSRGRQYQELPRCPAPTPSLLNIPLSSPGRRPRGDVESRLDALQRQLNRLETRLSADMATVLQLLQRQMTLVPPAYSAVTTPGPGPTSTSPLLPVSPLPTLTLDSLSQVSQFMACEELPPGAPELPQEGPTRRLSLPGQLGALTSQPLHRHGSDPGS

Structure (SMILES)	hERG current change (%, negative = inhibition) at 10uM [%]
Cc1ccc(C(=O)Nc2nccc(-c3cccs3)n2)cc1	-47.5
COc1ccc(-c2ccnc(SCC(=O)Nc3ccccn3)n2)cc1	3.26
COc1ccc(-c2nc(CS(=O)CC(=O)N3CCN(C)CC3)c(C)o2)cc1OC (centres unmarked)	-2.26
COCc1nn2c(N)c(-c3ccccc3)cnc2c1-c1ccccc1	20.8
CC(=O)Nc1ccc(S(=O)(=O)NCc2nc(-c3ccc(C)cc3)no2)cc1	14.8
COCCCn1c(N)c(C(=O)OCCOC)c2nc3ccccc3nc21	-5.84
Cc1cccc(-c2nnc(SCc3ccccc3)o2)c1	-4.45
CSc1ccc(S(=O)(=O)N2CCC(C(=O)NCC3CCCO3)CC2)cc1 (centres unmarked)	-7.63
Cc1cccc(C(=O)NNC(=O)c2c(O)c3ccccc3n(C)c2=O)c1	-0.855
Cc1cc(OCC(=O)N2CCC(O)CC2)c2c(C)cc(=O)oc2c1	17.5
O=C(NC1CCN(C(=S)Nc2ccc(F)cc2)CC1)c1ccco1	-39
COc1cc2c(cc1OC)C(C)N(S(=O)(=O)c1cn(C)cn1)CC2 (centres unmarked)	7.14
CN(Cc1ccccc1)C(=O)CN(c1ccccc1Cl)S(C)(=O)=O	18.6
O=C(NCc1ccco1)c1sc2cccc(F)c2c1Cl	5.41
O=c1[nH]n2c(=O)c3c([nH]c2c1N=Nc1ccccc1)CCC3	15.1
O=C(Cn1ccc2ccccc2c1=O)NCC1COc2ccccc2O1 (centres unmarked)	-7.8
Cc1ccc(Nc2ncnc3nc[nH]c23)cc1Cl	17.8
O=S1(=O)CCN(C(CCO)c2cccc(C(F)(F)F)c2)CC1 (centres unmarked)	1.1
CN(C)c1ccc(NC(=O)CN2C3CCCC2CC(NC(=O)c2ccccc2)C3)cc1 (centres unmarked)	-65.3
COc1ccccc1CC(=O)N1CCCc2cc(C)ccc21	14.8
O=C(/C=C/c1ccc2c(c1)OCO2)N1CCN(c2ccccc2F)CC1	-6.73
Br.O=C(CN1CCCCC1)c1ccc(OC(F)F)cc1	-69.6
O=C(Cc1cccs1)Nc1ccc(-c2nnc(-c3ccco3)o2)cc1	-0.213
COC(=O)C1=C(C)N(Cc2ccco2)C(=O)N[C@@H]1c1ccc(Br)cc1	3.65
COc1ccccc1CC(=O)N1CCC(CCC(=O)NC2CC2)CC1	13.8
O=C(CC1CCS(=O)(=O)C1)NC1CCCCC1 (centres unmarked)	-0.93
